# Reference: PubChem BioAssay (Tox21)
# Several values for one entry are separate records, joined by “and”; a condition that tells them apart may be missing. Equal entries are not always repeated. The inconclusive results got no clear call from the source; some entries with a clear call stand among them for comparison. Entries that show only a call come without a potency. For some assays here: Potencies beside an inconclusive call are fits to weak or partial responses and may not hold up. Activity calls are given as the source filed them. Unless noted, calls follow the shape of the dose curve; as a rule, active = well fitted curve in the direction sought with a large enough effect in the repeat runs; inconclusive = weak or mixed curves; inactive = no such curve, though single readings can be large; an effect the other way counts as inactive or inconclusive.
# Assays:
# [1] = qHTS assay to identify small molecule antagonists of the retinoid acid receptor (RAR) signaling pathway - cell viability counter screen (AID 1159551); settings: C3RL4 cells viability, ATP luminescence (CellTiter-Glo), 6 h; series mostly up to 92.4 µM; also: nearly all actives have a fitted effect of over 35% in size; also: potency is read from the fitted curve at half-maximal effect
# Method in brief: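 Luminescent ATP quantitation (CellTiter-Glo) gave cell viability in C3RL4 cells exposed to test chemicals for 6 h at 37 C alongside 1 uM final retinol.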
# [2] = qHTS assay to identify small molecule antagonists of the TGF-beta/Smad signaling pathway - cell viability counter screen (AID 1346824); settings: SBE-bla HEK293T viability, CellTiter-Glo luminescence; series mostly up to 76.8 µM; also: nearly all actives have a fitted effect of over 50% in size; also: potency is read from the fitted curve at half-maximal effect
# Method in brief: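 SBE-bla HEK 293T cells, incubated overnight, then compound plus 0.25 ng/mL TGF-beta1 (stock added) for 5 hr at 37 C. Viability was read in the same wells by CellTiter-Glo luminescence after 30 min at room temperature.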
# [3] = molecular target: Androgen receptor (Homo sapiens) (UniProt P10275); experiment: qHTS assay to identify small molecule agonists of the androgen receptor (AR) signaling pathway (AID 743036; active = well fitted activation curve with a large enough effect in the signal ratio in the repeat runs, with a control signal flat, not every such curve was filed as active; inconclusive = weak or mixed curves, or effect the other way; inactive = no such curve, though single readings can be large or run the other way; the % refers to the signal ratio; also: potency is read from the fitted curve at half-maximal effect); settings: HEK293 AR-UAS-bla GripTite, beta-lactamase FRET ratio, 16 h; activation: at 62.4 µM (top of the series) unless noted
# UniProt P10275, sequence (P10275 whole entry, looked up): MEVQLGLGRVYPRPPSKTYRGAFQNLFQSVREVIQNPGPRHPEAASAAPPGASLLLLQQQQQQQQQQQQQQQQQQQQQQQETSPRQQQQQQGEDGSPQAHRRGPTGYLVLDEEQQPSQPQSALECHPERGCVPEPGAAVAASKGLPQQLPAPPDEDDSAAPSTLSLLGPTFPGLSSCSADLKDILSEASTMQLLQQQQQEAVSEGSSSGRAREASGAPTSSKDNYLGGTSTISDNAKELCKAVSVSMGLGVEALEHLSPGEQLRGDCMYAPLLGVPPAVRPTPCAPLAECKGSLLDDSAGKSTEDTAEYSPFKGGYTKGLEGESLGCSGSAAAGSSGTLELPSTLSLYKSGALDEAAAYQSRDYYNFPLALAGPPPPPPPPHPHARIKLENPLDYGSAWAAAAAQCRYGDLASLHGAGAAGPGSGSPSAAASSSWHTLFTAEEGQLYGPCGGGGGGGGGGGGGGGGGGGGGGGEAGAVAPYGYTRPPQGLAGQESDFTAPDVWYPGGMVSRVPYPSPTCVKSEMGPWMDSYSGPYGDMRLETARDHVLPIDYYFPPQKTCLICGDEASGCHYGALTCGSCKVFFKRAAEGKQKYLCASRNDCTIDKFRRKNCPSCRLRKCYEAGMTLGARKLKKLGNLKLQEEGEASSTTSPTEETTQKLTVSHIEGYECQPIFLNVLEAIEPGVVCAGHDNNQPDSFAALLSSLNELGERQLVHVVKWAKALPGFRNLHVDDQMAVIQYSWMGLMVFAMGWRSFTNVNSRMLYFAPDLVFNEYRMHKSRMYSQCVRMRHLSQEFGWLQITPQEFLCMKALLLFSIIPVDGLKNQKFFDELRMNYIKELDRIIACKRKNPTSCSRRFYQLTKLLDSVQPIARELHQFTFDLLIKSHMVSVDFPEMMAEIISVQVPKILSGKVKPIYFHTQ
# Method in brief: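 Cell-based FRET reporter assay: HEK293 line with a UAS-beta-lactamase construct, compounds added in DMSO, 16 h exposure at 37C, then 2 h substrate step at room temperature and fluorescence intensity read.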
# [4] = qHTS assay to identify small molecule antagonists of the androgen receptor (AR) signaling pathway using the MDA cell line in the presence of 0.5 nM R1881 - cell viability counter screen (AID 1259242); settings: MDA-kb2 viability, CellTiter-Fluor protease fluorescence, 16 h; series mostly up to 92.4 µM; also: nearly all actives have a fitted effect of over 45% in size; also: potency is read from the fitted curve at half-maximal effect
# Method in brief: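 Counter screen for cytotoxicity run in the same wells as the AR antagonist reporter screen: MDA-kb2 cells were treated 16 hr with test compounds and 0.5 nM R1881, then live-cell protease activity was measured by fluorescence.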
# [5] = molecular target: Androgen receptor (Homo sapiens) (UniProt P10275); experiment: qHTS assay to identify small molecule antagonists of the androgen receptor (AR) signaling pathway using the MDA cell line in the presence of 0.5 nM R1881 (AID 1259243); settings: MDA-kb2 MMTV-luciferase, R1881 0.5 nM, 16 h; series mostly up to 42.5 µM; also: potency is read from the fitted curve at half-maximal effect; nearly all actives have a fitted effect of over 50% in size
# Method in brief: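 Luciferase luminescence is the read-out: compounds are tested for suppressing 0.5 nM R1881-driven MMTV reporter activity in MDA-kb2 cells after 16 hr at 37C.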
# [6] = qHTS assay to identify small molecule antagonists of the estrogen related receptor signaling pathway with the pleiotropic PPARgamma coactivator (PGC) from Tox21 10K library (AID 1224841; call rule not given here; also: actives are mostly falling curves and most rising ones were filed inactive; nearly all actives have a fitted effect of over 50% in size; also: potency is read from the fitted curve at half-maximal effect); settings: PGC/ERR reporter cell line, ONE-Glo luciferase, 18 h; series mostly up to 92.4 µM
# Method in brief: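 PGC/ERR cell line, 2,000 cells/well; 6 h pre-incubation 37 C/5% CO2; compounds (DMSO) pinned in; 18 h, 37 C; One-Glo, 30 min RT; luminescence.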
# [7] = A CellTox Green Cytotoxicity Assay to monitor cytotoxicity in HEK293 cells - 24 hour (AID 1224875); settings: CellTox Green fluorescence; series mostly up to 76.8 µM; also: nearly all actives have a fitted effect of over 45% in size
# Method in brief: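 Nonlytic real-time cytotoxicity: HEK293 + CellTox Green reagent plated, 5 h preincubation, pintool compound addition (23 nL in DMSO), 37 C for 40 h, fluorescence measured at successive time points.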
# [8] = Caspase-3/7 induction in HepG2 cells by small molecules, qHTS assay (AID 1346978); settings: HepG2 caspase-3/7 activation, Caspase-Glo luminescence, 17 h; series mostly up to 92.4 µM; also: nearly all actives have a fitted effect of over 15% in size
# Method in brief: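 Wild-type HepG2 cells, 2,000/well, settled 5 hr at 37 C and 5% CO2, then compound-treated for 17 hr; caspase-3/7 activity read by luminescent Caspase-Glo 3/7 after 30 min at room temperature.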
# [9] = qHTS assay to identify small molecule antagonists of the farnesoid-X-receptor (FXR) signaling pathway - cell viability counter screen (AID 743221; active = well fitted cell-killing curve with a large enough effect in the repeat runs, not every such curve was filed as active; inconclusive = weak or mixed curves, or effect the other way; inactive = no such curve, though single readings can be large or run the other way; also: nearly all actives have a fitted effect of over 50% in size); settings: FXR-bla HEK293T viability, CellTiter-Glo luminescence, 16 h; activity change, negative = cytotoxicity: at 62.6 µM (top of the series) unless noted
# Method in brief: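 After a 5 h settling period, FXR-bla HEK 293T cells receive compound and chenodeoxycholic acid (50 uM final) and incubate 16 h at 37 C; CellTiter-Glo luminescence, read after 30 min at room temperature, reports cell viability.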
# [10] = qHTS assay to identify small molecule agonists of the estrogen related receptor signaling pathway with the pleiotropic PPARgamma coactivator (PGC) from Tox21 10K library (AID 1224842); settings: PGC/ERR reporter cell line, luciferase ONE-Glo, 18 h; series mostly up to 92.4 µM; also: nearly all actives have a fitted effect of over 15% in size; also: potency is read from the fitted curve at half-maximal effect
# Method in brief: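 PGC/ERR reporter cell line, 2,000 cells per well, incubated 6 h at 37 C before 23 nL compound in DMSO was added. After 18 h at 37 C, One-Glo luminescence read following 30 min at room temperature.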
# [11] = qHTS assay to identify small molecule agonists of the TGF-beta/Smad signaling pathway - cell viability counter screen (AID 1346829); settings: SBE-bla HEK293T viability, CellTiter-Glo luminescence, 5 h; series mostly up to 76.8 µM; also: top concentration of the series differs between compounds; nearly all actives have a fitted effect of over 45% in size
# Method in brief: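 After overnight seating at 37 C and 5% CO2, reporter cells got compounds for 5 hr and FRET substrate for 2 hr; cell viability then came from CellTiter-Glo luminescence.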
# [12] = qHTS assay to test for compound auto fluorescence at 460 nm (blue) in HEK293 cells (AID 720678); settings: blue autofluorescence 405/460 nm; series mostly up to 46 µM
# Method in brief: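 Intrinsic compound fluorescence is recorded in live HEK293 cultures after overnight incubation at 37C, 5% CO2, using excitation 405 nm and emission 460 nm. Values are referenced to triamterene.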
# [13] = A CellTox Green Cytotoxicity Assay to monitor cytotoxicity in HepG2 cells - 0 hour (AID 1224882); settings: CellTox Green fluorescence; series mostly up to 76.8 µM; also: potency is read from the fitted curve at half-maximal effect; nearly all actives have a fitted effect of over 35% in size
# Method in brief: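 Read-out is fluorescence of a cyanine dye excluded from live cells that stains DNA of dead HepG2 cells, with signal proportional to cytotoxicity. Plates were read at 0, 8, 16, 24, 32 and 40 h after compound addition.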
# [14] = qHTS assay to identify small molecule agonists of the peroxisome proliferator-activated receptor delta (PPARd) signaling pathway - cell viability counter screen (AID 743211); settings: PPARd-bla HEK293H viability, CellTiter-Glo luminescence, 17 h; activity change, negative = cytotoxicity: at 62.6 µM (top of the series) unless noted; also: nearly all actives have a fitted effect of over 55% in size; also: potency is read from the fitted curve at half-maximal effect
# Method in brief: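 qHTS cell viability: PPARd-bla HEK293H; 17 h cpd, 37C; CellTiter-Glo, luminescence at 30 min RT.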
# [15] = molecular target: Nuclear receptor subfamily 1 group I member 2 (Rattus norvegicus) (UniProt Q9R1A7); experiment: Rat pregnane X receptor (rPXR) activation by small molecules, qHTS assay (AID 1346983); settings: rPXR luciferase reporter cells, One-Glo luminescence, 24 h; max activation: hits give high values; also: nearly all actives have a fitted effect of over 20% in size
# UniProt Q9R1A7, sequence (Q9R1A7 whole entry, looked up): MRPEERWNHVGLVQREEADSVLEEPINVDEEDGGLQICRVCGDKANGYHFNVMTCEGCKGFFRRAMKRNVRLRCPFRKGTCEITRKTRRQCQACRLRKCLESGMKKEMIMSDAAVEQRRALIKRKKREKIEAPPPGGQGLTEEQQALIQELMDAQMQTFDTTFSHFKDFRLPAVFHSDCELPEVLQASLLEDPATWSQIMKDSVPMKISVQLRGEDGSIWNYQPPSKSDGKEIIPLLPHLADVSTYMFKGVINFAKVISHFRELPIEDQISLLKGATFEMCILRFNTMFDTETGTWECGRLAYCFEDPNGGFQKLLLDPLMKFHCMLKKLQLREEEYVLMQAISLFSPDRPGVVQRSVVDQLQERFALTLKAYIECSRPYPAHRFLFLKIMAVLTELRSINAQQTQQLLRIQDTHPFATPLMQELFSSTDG
# Method in brief: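 Cell-based rPXR activation assay: rPXR cells, 2,000 per well, rested 5hr at 37 C, then exposed to compounds in DMSO for 24 hr at 37 C. Luciferase activity read by One-Glo luminescence after 30 min at room temperature.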
# Aromatase (Homo sapiens) = Aromatase (Homo sapiens) (UniProt P11511); experiment: qHTS assay to identify aromatase inhibitors (AID 743083); settings: MCF-7 aro ERE, testosterone-driven ERE luciferase, 24 h; series mostly up to 70.3 µM; also: potency is read from the fitted curve at half-maximal effect; nearly all actives have a fitted effect of over 55% in size
# UniProt P11511, sequence (P11511 whole entry, looked up): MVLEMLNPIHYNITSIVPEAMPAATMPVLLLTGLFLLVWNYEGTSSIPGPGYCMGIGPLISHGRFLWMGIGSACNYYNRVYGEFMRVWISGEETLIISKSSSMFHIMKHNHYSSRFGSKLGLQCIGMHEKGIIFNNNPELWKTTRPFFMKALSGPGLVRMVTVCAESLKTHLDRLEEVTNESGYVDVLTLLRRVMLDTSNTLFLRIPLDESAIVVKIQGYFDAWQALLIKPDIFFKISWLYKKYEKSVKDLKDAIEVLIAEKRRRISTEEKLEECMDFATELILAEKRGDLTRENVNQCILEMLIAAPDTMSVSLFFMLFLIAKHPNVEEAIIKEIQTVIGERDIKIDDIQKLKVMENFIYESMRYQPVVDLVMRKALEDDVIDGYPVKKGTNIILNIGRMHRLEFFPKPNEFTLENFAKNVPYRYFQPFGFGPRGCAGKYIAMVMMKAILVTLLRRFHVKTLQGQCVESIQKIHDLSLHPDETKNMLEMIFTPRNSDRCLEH
# [16] = Caspase-3/7 induction in CHO-K1 cells by small molecules, qHTS assay (AID 1346980); settings: CHO-K1 caspase-3/7 induction, Caspase-Glo luminescence, 17 h; series mostly up to 92.4 µM; also: nearly all actives have a fitted effect of over 15% in size
# Method in brief: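 Wild-type CHO-K1 cells exposed to compounds for 17hr at 37 C, 5% CO2. Caspase-3/7 activity then measured by Caspase-Glo 3/7 luminescence after 30min at room temperature.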
# [17] = qHTS RealTime-Glo MT Cell Viability Assay in HepG2 cells - 16 hour (AID 1224885); settings: RealTime-Glo luminescence; series mostly up to 76.8 µM; also: nearly all actives have a fitted effect of over 50% in size
# Method in brief: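 Cells + NanoLuc/prosubstrate dispensed (600 cells/well) → 5 h at 37 C/5% CO2 → compounds in DMSO transferred → 40 h incubation at 37 C, luminescence read at 0, 8, 16, 24, 32, 40 h.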
# Tags tell the direction and shape of the fitted curve or compound fluorescence and quenching.
smiles,measurement,setting,value
C=C(C)[C@H]1CC=C(C)CC1,Potency,[1],"inconclusive: 27.3 µM [rising, single point]"
same,Potency,[2],inactive
OCc1cccc(Oc2ccccc2)c1,Potency,[3],inactive
same,Potency,[4],inactive
same,Potency,[5],"inconclusive: 54.5 µM [inhibitor, partial curve]"
CCc1cccc(CC)c1,Potency,[6],"inconclusive: 34.4 µM [falling, partial curve, poor fit]"
same,Potency,[7],inactive
same,Potency,[8],inactive
NCCN1CCNC1=O,Potency,[1],inactive
C=CCS(=O)(=O)O,Potency,[9],inactive
same,Potency,[10],inactive
CC(C)COC(=O)COc1ccc(Cl)cc1Cl,Potency,[10],inactive
same,Potency,[11],inactive
FC(F)(F)c1ccccc1-n1ccnc1,Potency,[12],inactive
CC(=O)c1ccccc1[N+](=O)[O-],Potency,[6],inactive
CC(=C(CCOC(=O)C(C)C)SSC(CCOC(=O)C(C)C)=C(C)N(C=O)Cc1cnc(C)nc1N)N(C=O)Cc1cnc(C)nc1N,Potency,[13],"inconclusive: 6.74 µM [activator, partial curve, poor fit]"
CCCCC(CC)COC(=O)CCCCC(=O)OCC(CC)CCCC (stereo not drawn),Potency,[14],"inconclusive: 1.73 µM [rising, full curve, poor fit]"
CN(C)CCCO[C@@H]1[C@H]2OC(C)(C)O[C@H]2O[C@@H]1C(O)CO (stereo partly drawn),Potency,[14],inactive
CCOC(=O)n1ccn(C)c1=S,Potency,[13],"inconclusive: 26.8 µM [activator, partial curve, poor fit]"
same,max activation,[15],inactive: -4.98%
C[C@]12CCC(=O)C=C1CC[C@@H]1[C@@H]2[C@@H](O)C[C@@]2(C)[C@H]1CC[C@]2(O)C(=O)CO,Potency,[3],active: 21.3 nM and active: 27.8 nM
same,max activation,[15],inactive: 9.15%
c1ccc2c(c1)Cc1ccccc1-2,Potency,Aromatase (Homo sapiens),"inconclusive: 61.1 µM [inhibitor, single point]"
same,Potency,[2],inactive
CCCCCCCC/C=C\CCCCCCCC(=O)OC(CO)CO,Potency,[14],"inconclusive: 43.6 µM [cytotoxic, partial curve, poor fit]"
COc1ccc(NC(C)=O)cc1N,Potency,[2],"inconclusive: 21.9 µM [cytotoxic, single point]"
CC(C)NCC(O)c1ccc2ccccc2c1 (stereo not drawn),Potency,[1],inactive
same,Potency,[4],inactive
CCNC(=O)/C=C/c1cccc(Br)c1,activation,[3],inconclusive: -22.4%
NNC(=O)CCCCC(=O)NN,Potency,[16],inactive
N[C@@H]1CONC1=O,Potency,[14],"inconclusive: 5.31 µM [rising, partial curve, poor fit]"
same,Potency,[13],"inconclusive: 10.7 µM [activator, single point]"
CCCCC(CC)CNC(=O)CC(C)OC(=O)CCC(=O)O (stereo not drawn),Potency,[10],"inconclusive: 26.6 µM [activator, partial curve]"
same,Potency,[17],inactive
CC1(N)CCC(C(C)(C)N)CC1 (stereo not drawn),Potency,[16],inactive
Cc1cnc(C(=O)NCCc2ccc(S(=O)(=O)NC(=O)NC3CCCCC3)cc2)cn1,Potency,[4],"inconclusive: 13.7 µM [cytotoxic, single point]"
CCS(=O)(=O)CCn1c([N+](=O)[O-])cnc1C,Potency,[6],"inconclusive: 13.3 µM [falling, partial curve, poor fit]"
NC(=O)c1ccc(N)cc1,Potency,[11],inactive
